Test results reported in the supplement of paper PMC3334620.
The full ranking holds about 33,000 sequences; the median of “E-score (-0.5 to 0.5)” is about -0.016, and the highest 2% start at about 0.31. The list shows a part of the results.

Each sequence was assayed against Cst6 (UniProt P40535) (assay: PBM E-score (8-mer binding enrichment) (E-score (-0.5 to 0.5)); higher = stronger / more preferred TF binding; most listed sequences are background and not binding sites). Conditions: protein concentration: 200 nM; construct: GST-DNA-binding domain.
In short: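 Bound GST-tagged yeast transcription factors, applied at about 100-200 nM to double-stranded universal all-10-mer Agilent arrays, were detected with fluorescent anti-GST. Scans were normalised with masliner. A modified Wilcoxon-Mann-Whitney statistic, the E-score, was assigned to each ungapped eight-base word pooled with its reverse complement by the Universal PBM Analysis Suite.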

Sequence	PBM E-score
CGCGGTGC	-0.139
AGGGGAGG	-0.244
ATCCACAT	0.0893
AAACAGTG	0.0576
CATACATC	0.289
GGGTACCC	-0.239
CAAAGCCA	0.113
AATACTGG	-0.0267
CCCAGCAC	-0.382
GCGTCCTA	-0.207
CCCGGCCG	-0.242
CGTAAAGA	0.167
CAGACCCA	-0.135
CTGCTAGA	-0.0579
GATTGCGA	0.0713
CATATCAG	0.0501
CGGTTGAC	0.175
AGATTCTG	-0.0861
GATGCCTA	-0.0343
GCGGTGCC	-0.0111
GACTTACA	-0.0298
CACTAGTA	0.069
AACAGATA	0.0862

Sequence	PBM E-score
ACCTATAA	0.0182
CTGCTGTC	-0.123
ATCGAGTC	-0.0616
ACCAGGCC	-0.0858
TAAATCGA	0.204
CAGTGGGG	-0.322
GAGGAAAC	-0.14
CCCGCTAA	-0.325
CATGTAGA	0.0765
GCTGGATA	-0.1
ATCTGCAC	-0.138
GACTTTCC	-0.0331
AGACGATG	0.0839
CACCACAC	0.00439
CGTGACAG	0.0907
ATCCGACA	-0.144
AGCGCGGG	-0.0965
CCGAAGCA	-0.0309
CAACATTG	0.0777
AACCGTCC	-0.298
ATTAAGAG	0.0898
ACCAGCCC	-0.169
GATGCCAC	0.158

Sequence	PBM E-score
AGTTTCGC	-0.00823
ACCTTAAC	0.0629
GGTGTATA	-0.195
GCATTTAA	0.153
CCATCGCG	0.128
GAAGTCCA	-0.303
AGAAGGCA	0.0312
CCGAGCAC	-0.263
AGCGCCGC	0.309
CACCCGAA	0.0623
AATGCCGA	0.041
GTCGTCGA	-0.00727
AGCAGAGA	-0.00014
GGCGAAAA	0.126
ACGAAATG	0.0827
ACGCTGTA	0.129
ACGTAGGA	0.267
CTTTAGAA	0.0739
CTGCCGCA	0.0518
CTATAATC	0.058
GCCCAGGA	-0.159
TAACTATA	0.104
GCGGCAGC	-0.104

Sequence	PBM E-score
GACTAGCA	-0.131
AATCGAAT	0.149
CCGGCTAA	-0.0511
AACGCACT	0.154
CTGGGACA	-0.219
TAGCGCAA	0.122
GCGTATTA	0.0768
GTAGCGCA	-0.0108
AAACTTCT	0.169
GGCAAGCC	-0.127
AATTTGTG	0.0781
AAGGACAA	0.0775
CGGCTTAG	-0.171
ACTCCCTA	0.00704
CCTAACAC	0.106
AGTACGCC	-0.0182
ACGGTCTC	-0.219
ATTAGTCG	0.169
CACATCAG	-0.0727
GGGTAGTA	-0.251
TTAGGCAA	-0.00879
CCATACGG	0.237
ACAACACG	0.135

Sequence	PBM E-score
AGATTTAT	0.195
AACATAAA	0.147
GGGGACGA	-0.19
AATTACAA	0.181
CGCACACC	-0.0563
ACGGCTTA	0.203
AGACACGA	0.0491
ATCTACCG	0.0145
TGACTGAA	0.0758
AACTAGAG	0.00307
GGGATGCA	-0.308
ACAATCTA	0.0502
CATCTGGG	-0.143
GCTTAGCC	-0.243
CCGAGTGA	0.0419
GATACTCA	0.0144
GACTCGCC	-0.223
ACTAGAGG	-0.213
GGGAGCGA	-0.225
GATCTAAA	0.077
ATCACTCA	0.138
